The source gives no read counts; variants with many changes may rest on few reads.
B1: LINE1-mini (parent)
chain: GGCAGAGCUCAACACAGCGUGGCAAAGUGGCUGUGGCUAGACUGCC

Variants of: B1
Experiment: self-cleavage, relative activity (ratio to wild type); higher = more cleavage; in vitro, sequencing; the parent is a self-cleaving ribozyme

Row | Variant | self-cleavage
1 | A16U C23G C37A A41U U43A | 0.28
2 | C3U A12G C13A C15A G19C A41G C45A | 0.07
3 | C3U A6U C23G G35U A39U | 0.16
4 | G1C G2U C18A | 0.03
5 | A6G C18A G22U C23U G33A | 0.02
6 | G2C G19C G30A G33U U38G G40U | 0.02
7 | G5A A14U G21C | 0.02
8 | A6G U34G U43C | 0.05
9 | C3A G7A U20A U38A | 0.08
10 | G2U U20C A24C U38G C46A | 0.01
11 | U9A G21U U32G G40U | 0.1
12 | A14U G30A C31A | 0.01
13 | A4G G33U U43A C45G | 0.03
14 | C3U C18G U38G | 0.01
15 | G1A A6U U20C | 0.43
16 | C18G U20A U32G | 0.02
17 | G1C G19U G30U C45G | 0
18 | G2U G5U U20C C23A U28A G40C | 0.04
19 | A4C C8U U9A C10A | 0.03
20 | G2C C15U C18A | 0.01
21 | G2A A16G C46A | 0.19
22 | A4G C15G G22C A26G G44C | 0.01
23 | G2U A11U G27C G40U | 0.01
24 | G5U A6C G7A A25U | 0.09

Row | Variant | self-cleavage
25 | U9A C13U C15U C37A | 0.31
26 | C15A C18A C31A G36A C37G C46G | 0.01
27 | C3A G5A C23A A41C | 1.13
28 | A11G A25C G27A G29C U34A G44U | 0.01
29 | G5U U9G A12C G17C U28C C45U | 0.01
30 | C10A C23U G40U G44C C45G | 0.03
31 | G5U G21U U38G C42A | 0.02
32 | C10G A16G C37A G40U | 0.01
33 | G7C A11U G29C | 0.02
34 | U9A A14U C23G | 0.07
35 | C10U G21U G35A G40C U43G | 0.01
36 | A6G C13A C23U G27U U32C U38A | 0.03
37 | A26G G27C C31G G33A A39C A41G | 0.02
38 | C13U A16C G19U U28G U32C | 0.06
39 | G22A G29U G33A | 0.75
40 | C18U G30A C31A A39G | 0.06
41 | G22U A24C G27C C45G | 0.04
42 | G5U A14G A25U U32G | 0.03
43 | G29U C31G C37A A39G C42A | 0.02
44 | A6U A12U A39U | 0.12
45 | A6C A25C C37U C46A | 0.07
46 | G2A G7C C8A A16C | 0.84
47 | G2U U28G G35A C42U | 0.03
48 | G19U C31U G33U A41C | 0.06

Row | Variant | self-cleavage
49 | C13A G36A G40A | 0.29
50 | C15U C18U G33A G44U | 0.04
51 | C3A C23U U28G | 0.11
52 | G7U U9C C13U C15G G19C | 0.04
53 | C10A A11U A16U G22U A26G G40C | 0.01
54 | C10A G17U A25U | 0.13
55 | A6G U9A C18A C23U C31U G33U C45U | 0.09
56 | C15G A25U G33C | 0.3
57 | G5C A12C G21U | 0.03
58 | C8U G22C G30A G40C | 0.06
59 | U9A C10U A11U G22C | 0.01
60 | G1U A16G C42U | 0.02
61 | U9C G27A U32C G36A C42G G44A | 0.01
62 | A14G U20C G21U | 0.28
63 | A6G A26G U34A G40A | 0.06
64 | C3U A6C C13G G17U U32C | 0.23
65 | C3U C23G G27A | 0.33
66 | G30A G33C A39G | 0.04
67 | G5U C8A C23A | 0.12
68 | G33U A39C A41U | 0
69 | G5C C8U A11C U28A A39C | 0.01
70 | G5U C8G G22C G36U | 0.03
71 | G7C C10A G40U | 0.03
72 | C10U A26U C31U | 0.25

Row | Variant | self-cleavage
73 | C8U G17U U43G | 0.02
74 | C10G A11U U32C | 0.04
75 | A6C C18U G33A U34G A41U U43A | 0.05
76 | G5C C10A A16U C18U U20G G27A | 0.06
77 | G19U U20G C23U G40U | 0.09
78 | A4U U20A G27U G29U | 0.01
79 | C13G U20C U43C | 0.02
80 | C10A A11C C23U U34A | 0
81 | G2C U9A G33U C46G | 0.02
82 | C3A U20G G36C | 0.01
83 | C23A G30U C46A | 1.76
84 | G1U C18A G36A | 0.02
85 | G5C G19U A25C | 0.03
86 | G1A G7C C18U U20A G30U U43A | 0.04
87 | G17U G35C G44U | 0.07
88 | C13A G27A U28G | 0.08
89 | G7A C10A G33C | 0.04
90 | A6G C10G G21C G30U C42U | 0.01
91 | C13A A25C U32G | 0.04
92 | C18U U32G G44U | 0.07
93 | G5U C10A G17U G22U U32A | 0.03
94 | G17U G19C A41U G44U | 0.06
95 | A4C U43C C45A | 0.07
96 | G2U A12G C15G A16C | 0.08

Row | Variant | self-cleavage
97 | G5U A11U A25G A41C | 0.01
98 | G7C C10G A39U | 0.02
99 | A26U G30U G36A | 0.06
100 | G7A A12U C15U A26C G33A G44A | 0.49
101 | C15G G17C G40A C46U | 0.01
102 | U9A C10A G35C U43A | 0.01
103 | C8A C13G G40U | 0.03
104 | G2U A16U G22A | 0.01
105 | C31U G35A A41U G44A | 0
106 | A26C G36C C37U | 0.02
107 | C8U A16U A24C G29U U43G | 0.04
108 | A12U C13A G29U G30C | 0.04
109 | A14C A26C G30C | 0.18
110 | U34C A41U G44A | 0.2
111 | G7U A25G A41C G44C | 0.16
112 | G7U G30A C31U A41C | 0.08
113 | C3U C8U A14U G21A A26C | 0.25
114 | C8G U9A A41C | 0.08
115 | C10A C37G A41C | 0.02
116 | U9G U20C C23G G44U | 0.01
117 | C8U G22U C37G G44U C46G | 0.18
118 | G19A A24U G30C C37U A41G | 0.04
119 | G2U C3G C13A C37A | 0.02
120 | A14U G27U C46U | 0.04

Row | Variant | self-cleavage
121 | U9G A39U C45G | 0.02
122 | G1A C13G U20A G27U | 0.08
123 | G22C G36A G40C C46A | 0.09
124 | G2A G7C G22U U32G G44U | 0.38
125 | G22U G33A G35C C46U | 0.05
126 | G2U C3G A24C U32G | 0.01
127 | G1C U9C C13A G36U | 0.02
128 | C3A A11G A16G G17A G29U G35C G36C | 0
129 | C3U G17C G36A G44A | 0.05
130 | C23A A26C U32C U43A | 0.05
131 | G17U G33A U38G C45U | 0.01
132 | C15G U20C A26U | 0.02
133 | C37A U38A C42U | 0.05
134 | G21C C31U C45U | 0.06
135 | A4U A12U G19C C42U | 0.02
136 | A4G C18U A25C G29C G33C | 0.03
137 | C8U G29A U34C | 0.18
138 | A6G C18U C23A U32A | 0.05
139 | G5A C10G A14U C15G | 0.04
140 | A11C G30U C46A | 0
141 | A6U A12G G17C G22U A39C | 0.04
142 | A11G C13U G22A G29A U32G A41G C42U G44C | 0.01
143 | A6U A12U G21U C42G | 0.14
144 | C3U C10U U20A C23A G40C C46A | 0.01

Row | Variant | self-cleavage
145 | C3A U34C U38G C42G | 0.17
146 | G29A G35A U43C | 0.04
147 | G2A C10U A11U A25U | 0.1
148 | C3A U9G G21A A25U G33A G35C G44A C46G | 0.11
149 | G5C G7U U32G G40U | 0.04
150 | C10A C18U G29U | 0.07
151 | G7C C15A U28C C31U | 0.03
152 | G5U U20G G44U | 0.02
153 | C10U A12U G30U G40C C42A | 0.01
154 | C13A C15A G35U A39G C45A | 0.05
155 | G2C G35C C37U A41G | 0.08
156 | A4C C18U U34C | 0.77
157 | C15A G17C G27A | 0.06
158 | C3U G22C U32C | 0.02
159 | A4C G29A A39U G44C | 0.03
160 | A12G C13G A25G A26U G30U C37G G44A | 0.03
161 | G17U A26C G30C C42U C45U | 0.01
162 | G2U C8A G21A | 0.21
163 | C10A A11U G22C C45U | 0
164 | A16G C23U G40C | 0.07
165 | A4C G19A U32C | 0.1
166 | C18A G35U C45A | 0.01
167 | C15G A16C C31U | 0.02

From the RNAGym collection of RNA variant scans (doi:10.7554/elife.90254)
